Data taken from PubChem BioAssay AID1159614 (National Center for Advancing Translational Sciences (NCATS), 2016).
In all, about 45,000 compounds went through this assay and about 65 (0.1%) were called active. The call rests on the fitted dose curve; in most records, active means well fitted activation curve with a large enough effect; inconclusive means small, poorly fitted or top-dose-only effect; inactive means no such curve, though single readings can be large or run the other way. Some of the results follow.

Each compound was assayed against Galactocerebrosidase (Homo sapiens) (UniProt P54803) (assay: A Novel Cell-Based Assay to Identify Small Molecules for B -Galactocerebrosidase). Conditions: 145M-Twi-hGALC-G270D cells (Twitcher mouse brain line with human GALC G270D), HMU-beta-Gal fluorescence, 48 h; series mostly up to 57.5 µM; activation: at the top concentration.
Chain of UniProt P54803 (P54803 whole entry, looked up): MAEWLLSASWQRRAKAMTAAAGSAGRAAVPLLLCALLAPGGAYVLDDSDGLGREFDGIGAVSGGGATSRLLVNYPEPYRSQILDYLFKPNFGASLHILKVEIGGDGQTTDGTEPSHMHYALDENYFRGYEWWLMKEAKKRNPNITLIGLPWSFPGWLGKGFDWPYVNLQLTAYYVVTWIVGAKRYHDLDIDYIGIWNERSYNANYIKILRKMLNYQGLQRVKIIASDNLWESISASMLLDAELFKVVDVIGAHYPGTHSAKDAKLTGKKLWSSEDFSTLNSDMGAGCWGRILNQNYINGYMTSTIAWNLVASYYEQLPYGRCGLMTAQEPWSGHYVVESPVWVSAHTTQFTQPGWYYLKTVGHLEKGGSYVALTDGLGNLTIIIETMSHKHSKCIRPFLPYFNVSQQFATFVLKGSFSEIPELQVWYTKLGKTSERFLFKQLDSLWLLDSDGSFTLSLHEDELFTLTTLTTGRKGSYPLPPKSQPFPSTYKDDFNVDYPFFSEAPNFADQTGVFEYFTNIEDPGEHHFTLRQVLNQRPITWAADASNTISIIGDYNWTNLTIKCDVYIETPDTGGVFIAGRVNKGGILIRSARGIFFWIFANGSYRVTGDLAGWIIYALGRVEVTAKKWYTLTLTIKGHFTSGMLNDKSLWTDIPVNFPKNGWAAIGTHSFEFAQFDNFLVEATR
Summary of the method: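 Fluorescence readout: HMU-β-gal cleavage by mutant GALC (0.1 mM final, citrate/phosphate pH 5.2 with 1 mg/mL taurocholate), stopped with carbonate/bicarbonate plus Triton X-100. Cells: murine Twitcher 145M-Twi expressing human G270D GALC; qHTS for activators.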
Further: 0% is about no effect; nearly all actives have a fitted effect of over 65% in size.

activation, inactive:
Cc1ccc(Cn2c(=O)c3c(nc4n3CCN4c3cc(C)cc(C)c3)n(C)c2=O)cc1 -9.52%
CCN(CC)CCn1c(=N)n(CC(O)COc2ccccc2C)c2ccccc21 (configuration not stated) -10.1%
CCc1ccc(-c2[nH]c3c(c2-c2c(-n4cccc4)n(C)c(=O)n(C)c2=O)c(=O)n(C)c(=O)n3C)cc1 -14.9%
CC(C)c1ccc(C2c3c(-c4ccccc4O)n[nH]c3C(=O)N2CCc2ccccc2)cc1 (configuration not stated) -40.8%
COc1ccc(-c2c(C)nn3c(N4CCC(C(=O)NCCC(C)C)CC4)cc(C)nc23)cc1OC -9.96%
Cc1ccc(-n2ncc3c(NNC(=O)c4ccccc4C)ncnc32)cc1 -6.44%
COc1ccc(CNC(=O)Cc2c(C)c3c(cc(C)c4c(C)coc43)oc2=O)cc1 -11%
COc1ccc(Cl)cc1NC(=O)CCCn1c(=O)c2cccn2c2cccnc21 -13.3%
CCCN1CCN(CC2=C(C(=O)OCC)C(c3ccc(Cl)cc3)NC(=O)N2)CC1 (configuration not stated) -10.4%
C#CC1(O)CC[C@H]2[C@@H]3CCC4=CCCC[C@@H]4[C@H]3CC[C@@]21C (some centres not stated) -10.4%
COCCCNC(=O)c1ccc(NC(=O)N2CCCCc3ccccc32)cc1 -12.4%
COc1ccc(-c2nc(CCNC(=O)c3cc(OC)c(OC)c(OC)c3)cs2)cc1 -20%
COc1ccc(-c2noc(CSc3nnc(-c4ccncc4)n3-c3ccccc3)n2)cc1 -7.18%
Cc1ccccc1-c1noc(CSc2nnc(Cc3ccccc3)n2-c2ccc(F)cc2)n1 -14.8%
CCC(C)n1c(=N)c(S(=O)(=O)c2ccc(C)cc2)cc2c(=O)n3cc(C)ccc3nc21 (configuration not stated) -12.8%
CCOC(=O)c1ccccc1NC(=O)N(Cc1ccc(C)cc1)Cc1cccn1-c1nnc(N2CCCC2=O)s1 -32.8%
CCOC(=O)N1CCc2c(sc(NCc3ccc(OC)c(Br)c3)c2C(=O)Nc2cc(OC)ccc2OC)C1 -2.96%
COC(=O)c1c(NC(=O)c2ccc(S(=O)(=O)N3CCCCC3C)cc2)sc2c1CCN(C(C)C)C2 (configuration not stated) -23%
COc1cccc(NC(=O)Cn2c(=O)n(CCCC(=O)NCc3ccc4c(c3)OCO4)c(=O)c3ccccc32)c1 -5.73%
Cc1ccc(CNC(=O)c2c(-c3ccccc3F)noc2C)o1 4.49%
CCCCOc1cccc(C(=O)N(Cc2ccc(Cl)cc2)C2CCS(=O)(=O)C2)c1 (configuration not stated) -33.6%
Cc1ccc(-c2noc(-c3ccc(NCC4CCCO4)c([N+](=O)[O-])c3)n2)cc1 (configuration not stated) -7.97%
COc1ccc(CCNC(=O)CSc2nnc(-c3ccc(C)cc3)c(-c3ccc(C)cc3)n2)cc1OC 4%
CCOc1ccc(C(=O)NCCS(=O)(=O)N2CCN(c3cccc(Cl)c3)CC2)cc1 6.96%
COc1ccccc1NC(=O)N1CC=C(c2c[nH]c3ccccc23)CC1 -12%
Cc1cc(=O)[nH]c2nnc(SCCC(C)C)n12 -22.3%
CC(=O)Oc1ccc(C2(c3ccc(OC(C)=O)cc3)Oc3ccccc3NC2=O)cc1 -7.23%
COc1ccc(CNC(=O)CN(C)c2nn3c(=O)cc(C)nc3s2)cc1 -20.7%
COc1cccc(C2=NN(S(C)(=O)=O)C(c3cn(-c4ccccc4)nc3-c3cccs3)C2)c1 (configuration not stated) 0.757%
CC(=O)c1ccc(N2CCN(C(=O)CS(=O)(=O)c3cccc4nsnc34)CC2)cc1 4.35%
Cc1cccc(NC(=O)c2oc3ccc(S(=O)(=O)N4CCCCC4)cc3c2C)c1C -19.3%
COc1ccc(-c2[nH]c(-c3ccc(OC)c(OC)c3)nc2SCC(=O)Nc2ccccc2)cc1 -19.4%
COc1cc(C(=O)Nc2ccccc2OCc2cc(=O)n3cc(C)sc3n2)cc(OC)c1OC 4.67%
Cc1ccc(-c2nnc(Nc3ccc(Cl)cc3)c3ccccc23)cc1S(=O)(=O)NCC1CCCO1 (configuration not stated) -18.2%
O=C(c1cccc(Cl)c1)N1CCC(c2nc3c(nnn3Cc3ccc(F)cc3F)c(=O)[nH]2)CC1 -14.8%
COc1ccc(C(=O)c2cn(Cc3ccccc3F)c3ccc(F)cc3c2=O)cc1 -12.8%
CCOc1ccccc1C(=O)N(Cc1ccc(N(C)C)cc1)Cc1ccco1 -32.5%
Cn1ccc2cc(S(=O)(=O)N3CCCN(C(=O)Nc4ccc(Br)cc4)CC3)ccc21 -17.8%
Cc1ccc(Nc2c(-c3ccc(N(C)C)cc3)nc3ccccn23)cc1 3.21%
Cc1cccc(-c2nc3cc(NC(=O)Cc4ccc(Cl)cc4)ccc3o2)c1 -6.71%
COc1ccc(NC(=O)c2c(NC(=O)COc3ccc(Cl)cc3)sc3c2CCCCC3)cc1 -7.44%
CCOC(CN1CCN(CC(C)C(=O)c2ccccc2)CC1)c1ccccc1 (configuration not stated) -13.1% [at 23.8 µM]
CCN(C(=O)Cn1nc2c3cc(F)ccc3n(Cc3cccc(C)c3)cc-2c1=O)c1cccc(C)c1 -0.308%
CCOC(=O)CCN(Cc1ccccc1)S(=O)(=O)c1csc(C(N)=O)c1 -15.8%
CCN(CC)CCOC(=O)c1ccc(NC(=O)c2nn(-c3ccc(C)cc3)c(=O)c3c2c2ccccc2n3C)cc1 -17.3%
C[N+]1(C)[C@@H]2CC(OC(=O)[C@H](CO)c3ccccc3)C[C@H]1[C@@H]1O[C@@H]12 (some centres not stated) -9.08%
CCOC(=O)c1ccc2c(c1)N(CC(=O)Nc1cc(F)ccc1F)C(=O)c1ccccc1S2 -10.1%
O=C(NCCCN1CCN(c2ccc(F)cc2)CC1)c1cc2c(s1)-c1ccccc1OC2 2.19%
CC1=C(C(N)=O)C(c2cccc(C)c2)n2nc(-c3ccc(Cl)cc3)nc2N1 (configuration not stated) -9.16%
CSc1ccccc1NC(=O)C1=CC(c2ccc3c(c2)OCO3)=NS(=O)(=O)N1C -8.74%
OCC(CO)N[C@H]1C[C@](O)(CO)[C@@H](O)[C@H](O)[C@H]1O -11.7%
COc1ccc(Cn2nnc3c(=O)[nH]c(C4CCCN(C(=O)c5ccccc5Cl)C4)nc32)cc1OC (configuration not stated) -8.87%
N#Cc1cc2c(=O)n3ccccc3nc2n(-c2nnc(SCc3ccc(F)cc3)s2)c1=O -5.74%
COc1ccc(CNC(=O)c2oc3c(c2C)-c2nn(Cc4ccccc4Cl)cc2CC3)cc1 -23.5%
Cc1ccc(C)c(NC(=O)C(=O)NCC(c2cccnc2)N2CCN(c3ccc(F)cc3)CC2)c1 (configuration not stated) -3.36%
COc1cc(OC)c(NC(=O)N2CCOc3ccc(C)cc32)cc1Cl -21.8%
Cc1ccc(-n2nc(C(=O)N3CCCCC3C)c(=O)n(C)c2=O)cc1 (configuration not stated) -12.8%
CCOc1ccccc1NC(=O)C1CCN(S(=O)(=O)c2ccc(Br)cc2)CC1 25.3%
Cc1nn(CCCC(=O)NCc2ccccc2)c(=O)c2c1sc1ccccc12 -10.4%
COc1ccc(NC(=O)c2c(NCc3ccc(C)o3)sc3c2CCC(C)C3)cc1 (configuration not stated) -12.7%
CC1CN(C(=O)CCC(=O)NCc2cccs2)c2ccccc2O1 (configuration not stated) -25.5%
COc1cc(NC(=O)C2=C(C)Nc3nnnn3C2c2ccc(SC)cc2)c(OC)cc1Cl (configuration not stated) -13.2%
CCOC(=O)c1ccc(NC(=O)c2nc(S(=O)(=O)Cc3ccccc3)ncc2Cl)cc1 -16.3%
CCOC(=O)N1CCc2c(sc3c2c(=O)n(Cc2ccccc2)c(=O)n3Cc2cccc(Cl)c2)C1 -4.19%
Cc1ccc(S(=O)(=O)c2cn(C)c3cc(N4CCN(c5ccccc5)CC4)c(F)cc3c2=O)cc1 -7.77%
CCOc1ccc(C(=O)Nc2ccc3nc4c(c(Nc5ccccc5OC)c3c2)CCCC4)cc1 -23.2%
CCOc1ccc2nc(NC(=O)c3nc(SCc4ccc(C)cc4)ncc3Cl)sc2c1 -7.67%
COc1ccc(N2CCN(c3nc4ccccc4n4c(C)nnc34)CC2)cc1 -10.8%
CCOC(=O)CC(NS(=O)(=O)c1cc(-c2cc(C)no2)ccc1C)c1ccc(C)cc1 (configuration not stated) -23.6%
CC(C)CCn1c(=O)c2sccc2n2c(CCCC(=O)Nc3ccc(C(C)C)cc3)nnc12 -2.02%
CN(C(=O)CSc1nc2ccccc2[nH]1)c1ccc(F)cc1 -6.09%
Cc1ccc(CSc2nncn3c2cc2sccc23)cc1 -10.5%
O=C(CC1N=C2c3ccccc3N=C(SCC(=O)Nc3ccccc3F)N2C1=O)NCc1ccc2c(c1)OCO2 (configuration not stated) -17.2%
Cc1ccc2occ(CC(=O)Nc3c(C(=O)Nc4ccc(Cl)cc4)oc4ccccc34)c2c1 -11.4%
CC(C)COc1ccc(C(=O)N2CCC(c3nc4ccccc4s3)CC2)cc1 -17%
Cc1cccc(C)c1NC(=O)CN(C)S(=O)(=O)c1ccc2[nH]c3c(c2c1)CCCC3 -24.7%
Cc1cccc(N2C(=O)N(Cc3ccc(C(C)(C)C)cc3)c3ccccc3S2(=O)=O)c1 -9.36%
O=C(NCc1ccc(Cl)cc1)c1cnc(N2CCOCC2)c2ccccc12 -5.23%
COc1ccccc1NC(=O)C1=C(C)Nc2nc(SCC(=O)c3ccc(C)cc3)nn2C1c1ccc(F)cc1 (configuration not stated) -8.09%
Cc1ccc(CSCCNC(=O)CN(c2cccc(C)c2C)S(=O)(=O)c2ccccc2)cc1 -4.08%
CCOC(=O)c1c(NC(=O)C(C)Sc2cn(CCNC(=O)c3ccc(OC)cc3)c3ccccc23)sc2c1CCC2 (configuration not stated) 3.81%
CCCOCc1cc(CN2CCN(c3ccccc3OC)CC2)c(O)c2ncccc12 -17.7%
COc1ccc(OC)c(S(=O)(=O)NCc2ccc3c(c2)CCN3C(=O)c2cccc(C)c2)c1 3.2%
Cc1ccccc1CNC(=O)c1ccc(Cn2c(SCc3ccccc3)nc3cccnc32)cc1 -12.7%
COc1ccc(CNC(=O)c2ccc3c(c2)CCN3S(=O)(=O)c2ccccc2)cc1 -9.11%
COCCCOc1ccnc(CS(=O)c2nc3ccccc3[nH]2)c1C (configuration not stated) 1.4%
CC1CCCN(S(=O)(=O)c2cc(C(=O)NCCc3ccccc3)n(C)c2)C1 (configuration not stated) 0.386%
CCn1cc(C(=O)NCc2ccccc2Cl)c(=O)c2cc(S(=O)(=O)N3CCCCCC3)ccc21 -8.78%
CCOc1ccc(Nc2oc(-c3ccc(COc4ccc(C)cc4)o3)nc2C#N)cc1 -8.34%
COc1ccc(CNc2nc(-c3ccco3)nn2C(=O)c2ccccc2C)cc1 -24%
Cc1ccc(-c2nc(CNC(=O)NC3CCCCC3)c(C)o2)cc1 -9.51%
Cc1ccc(Cl)cc1NC(=O)c1ccc2nc(CCc3ccccc3)oc2c1 -8.89%
